Experiments:
[1] = tested on: tomato late blight fungi (Phytophthora infestans); format: in vivo; conditions: tomato late blight, spray treatment of tomato plants
[2] = tested on: rice blast fungi (Magnaporthe grisea); format: in vivo; conditions: rice blast, spray treatment of rice plants
[3] = tested on: cucumber anthracnose fungi (Colletotrichum orbiculare); test: Test Example H: cucumber anthracnose, spray treatment of cucumber plants; conditions: cucumber anthracnose, 250 ppm spray (2.5 ml/pot), 6 to 10 days after inoculation

## Cc1ccccc1-n1cc(C)c(=O)c(C)c1-c1ccccc1 [Compound 253]
[1]
  Test F control value: L (L shows the control value of 50% or less)
[2]
  Test A control value: L (L shows the control value of 50% or less)
[3]
  Test H control value: L (L shows the control value of 50% or less)

## CSc1ccc(-c2c(C)c(=O)c(C)cn2-c2ccccc2C)cc1 [Compound 254]
[1]
  Test F control value: L (L shows the control value of 50% or less)
[2]
  Test A control value: L (L shows the control value of 50% or less)
[3]
  Test H control value: L (L shows the control value of 50% or less)

## Cc1cn(CC#N)c(-c2c(F)cc(F)cc2F)c(C)c1=O [Compound 255]
[1]
  Test F control value: L (L shows the control value of 50% or less)
[2]
  Test A control value: L (L shows the control value of 50% or less)
[3]
  Test H control value: L (L shows the control value of 50% or less)

## Cc1ccc(-n2cc(Br)c(=O)c(Cl)c2-c2c(F)cc(F)cc2F)c(C)c1 [Compound 256]
[1]
  Test F control value: L (L shows the control value of 50% or less)
[2]
  Test A control value: H (H shows the control value of more than 50%)
[3]
  Test H control value: H (H shows the control value of more than 50%)

## Cc1ccc(-n2cc(Br)c(=O)c(Br)c2-c2c(F)cc(F)cc2F)c(C)c1 [Compound 257]
[1]
  Test F control value: L (L shows the control value of 50% or less)
[2]
  Test A control value: L (L shows the control value of 50% or less)
[3]
  Test H control value: H (H shows the control value of more than 50%)

## Cc1ccc(-n2cc(Cl)c(=O)c(Br)c2-c2c(F)cc(F)cc2F)c(C)c1 [Compound 258]
[1]
  Test F control value: L (L shows the control value of 50% or less)
[2]
  Test A control value: H (H shows the control value of more than 50%)
[3]
  Test H control value: H (H shows the control value of more than 50%)

## Cc1ccc(-n2cc(Cl)c(=O)c(Cl)c2-c2c(F)cc(F)cc2F)c(C)c1 [Compound 259]
[1]
  Test F control value: L (L shows the control value of 50% or less)
[2]
  Test A control value: H (H shows the control value of more than 50%)
[3]
  Test H control value: H (H shows the control value of more than 50%)

## COCn1cc(C)c(=O)c(C)c1-c1c(F)cc(F)cc1F [Compound 260]
[1]
  Test F control value: L (L shows the control value of 50% or less)
[2]
  Test A control value: L (L shows the control value of 50% or less)
[3]
  Test H control value: L (L shows the control value of 50% or less)

## Cc1ccccc1-n1cc(I)c(=O)c(C)c1-c1c(F)cc(F)cc1F [Compound 261]
[1]
  Test F control value: L (L shows the control value of 50% or less)
[2]
  Test A control value: H (H shows the control value of more than 50%)
[3]
  Test H control value: H (H shows the control value of more than 50%)

## Cc1ccccc1-n1cc(C)c(=O)c(C)c1-c1ccc([S+](C)[O-])cc1 (stereo not drawn) [Compound 262]
[1]
  Test F control value: L (L shows the control value of 50% or less)
[2]
  Test A control value: L (L shows the control value of 50% or less)
[3]
  Test H control value: L (L shows the control value of 50% or less)

## Cc1ccccc1-n1cc(C)c(=O)c(C)c1-c1ccc(S(C)(=O)=O)cc1 [Compound 263]
[1]
  Test F control value: L (L shows the control value of 50% or less)
[2]
  Test A control value: L (L shows the control value of 50% or less)
[3]
  Test H control value: L (L shows the control value of 50% or less)

## COc1ccc(-n2cc(Br)c(=O)c(Cl)c2-c2c(F)cc(F)cc2F)c(C)c1 [Compound 264]
[1]
  Test F control value: H (H shows the control value of more than 50%)
[2]
  Test A control value: H (H shows the control value of more than 50%)
[3]
  Test H control value: H (H shows the control value of more than 50%)

## Cc1ccccc1-n1cc(Cl)c(=O)c(C)c1-c1c(F)cc(F)cc1F [Compound 265]
[1]
  Test F control value: L (L shows the control value of 50% or less)
[2]
  Test A control value: H (H shows the control value of more than 50%)
[3]
  Test H control value: H (H shows the control value of more than 50%)

Reference: patent US11000038B2, “Pyridone compounds and agricultural and horticultural fungicides containing the same as active ingredients” (priority 2017, dated 2021)
